Assay results reported in a collection of fitness landscapes (doi:10.1016/j.celrep.2020.107928).
Over roughly 81,000 sequences, “one-hybrid fitness for binding NBS DNA” has its median near -0.1; the highest 2% begin near 0.36. The list shows a part of the results.

B1: Caulobacter ParB omega fusion; a variant is named by its letters at X, in order, B8GW30 (parent)
chain: MESVVVGEPGMSEGRRGLGRGLSALLGEVDAAPAQAPGEQLGGSREAPIEILQRNPDQPRRTFREEDLEDLSNSIREKGVLQPILVRPSPDTAGEYQIVAGERAWRAAQRAGLKTVPIMVRELDDLAVLEIGIIENVQRADLNVLEEALSYKVLMEKFERTQENIAQTIGKSXSHVANXMRLLXLPDEVQSYLVSGELTAXHARAIAAAADPVALAKQIIEGGLSVRETEALARKAPNLSAGKSKGGRPPRVKDTDTQALESDLSSVLGLDVSIDHRGSTGTLTITYATLEQLDDLCNRLTRGI

Variants of: B1
Experiment: one-hybrid fitness for binding NBS DNA (the Noc-binding site; scaled: cognate 1, non-cognate 0); higher = stronger binding
Conditions: with NBS DNA site
In short: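 Fitness here means the log change in variant-to-wild-type read ratio between plasmids sequenced before and after selection. That scale was set so cognate equals 1 and non-cognate equals 0. The selection was a bacterial one-hybrid screen of Caulobacter ParB libraries, four specificity codons randomised, in E. coli USO carrying a HIS3 reporter with the site 19 bp from the promoter, grown 48 hours at 37°C on M9-minus-histidine with 0.1 mM IPTG and 5 mM 3-AT.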

Variant	one-hybrid fitness for binding NBS DNA
PKET	≤ 0.2
QMSP	≤ 0.2
YTAP	≤ 0.2
SRNL	≤ 0.2
FTTT	≤ 0.2
SIQS	≤ 0.2
WMMT	≤ 0.2
GPVS	≤ 0.2
GYKD	≤ 0.2
LWIL	≤ 0.2
HTRT	≤ 0.2
DWTR	≤ 0.2
QEVN	≤ 0.2
DDQS	≤ 0.2
FMKM	≤ 0.2
NWKS	≤ 0.2
WFMS	≤ 0.2
PGVS	≤ 0.2
TSHM	≤ 0.2
QWVG	≤ 0.2
PPLF	≤ 0.2
DLDT	≤ 0.2
VNVW	≤ 0.2
EDYG	≤ 0.2

Variant	one-hybrid fitness for binding NBS DNA
QMTM	≤ 0.2
VTEF	≤ 0.2
GLGY	≤ 0.2
LISY	≤ 0.2
APEY	≤ 0.2
QQRY	0.597
QYLK	≤ 0.2
RSML	≤ 0.2
CVRL	≤ 0.2
PAII	≤ 0.2
RYHL	≤ 0.2
LSSN	≤ 0.2
DSQF	≤ 0.2
STAE	≤ 0.2
HLVR	≤ 0.2
HQCG	≤ 0.2
DFRS	≤ 0.2
TMHI	≤ 0.2
TCLW	≤ 0.2
AEKR	0.261
SWLM	≤ 0.2
YFNC	≤ 0.2
NFAS	≤ 0.2
DPDR	≤ 0.2

Variant	one-hybrid fitness for binding NBS DNA
LNNP	≤ 0.2
YYHM	≤ 0.2
VEGT	≤ 0.2
NSAC	≤ 0.2
TTVQ	≤ 0.2
MVGT	≤ 0.2
AGAC	≤ 0.2
VLSK	≤ 0.2
RAFI	≤ 0.2
QQPD	≤ 0.2
QNWE	≤ 0.2
SFRE	≤ 0.2
RGKL	≤ 0.2
PCQG	≤ 0.2
YPPI	≤ 0.2
HMQR	≤ 0.2
LSVC	≤ 0.2
CFNW	≤ 0.2
KVIA	≤ 0.2
QQNF	≤ 0.2
HFST	≤ 0.2
PNRT	≤ 0.2
HVSS	≤ 0.2
VWFG	≤ 0.2

Variant	one-hybrid fitness for binding NBS DNA
RVVT	0.261
SMEG	≤ 0.2
HVST	≤ 0.2
TRVS	≤ 0.2
ELTV	≤ 0.2
YSRK	≤ 0.2
YMIT	≤ 0.2
INNF	≤ 0.2
CPLP	≤ 0.2
VVKM	≤ 0.2
WNAS	≤ 0.2
TPVY	≤ 0.2
AQLC	≤ 0.2
SPRG	≤ 0.2
RANN	≤ 0.2
PPIM	≤ 0.2
PAQL	≤ 0.2
MVHM	≤ 0.2
ADES	≤ 0.2
KVDS	≤ 0.2
RMLF	≤ 0.2
IAAA	≤ 0.2
NGEW	≤ 0.2
LQIV	≤ 0.2

Variant	one-hybrid fitness for binding NBS DNA
DTLD	≤ 0.2
LQCL	≤ 0.2
KIRR	0.269
QKLH	0.246
VHSG	≤ 0.2
GAHD	≤ 0.2
MVPS	≤ 0.2
VLTK	≤ 0.2
GKQS	≤ 0.2
GYKR	0.205
GNSS	≤ 0.2
GSGV	≤ 0.2
CSQT	≤ 0.2
FFHS	≤ 0.2
HDIR	≤ 0.2
NPSE	≤ 0.2
FYPD	≤ 0.2
IWRC	≤ 0.2
TSYN	≤ 0.2
RSSI	≤ 0.2
RYLA	≤ 0.2
RTTP	≤ 0.2
DFTF	≤ 0.2
DPSS	≤ 0.2

Variant	one-hybrid fitness for binding NBS DNA
GAIG	≤ 0.2
VTCC	≤ 0.2
IYNQ	≤ 0.2
TYHV	≤ 0.2
MHCE	≤ 0.2
KALM	≤ 0.2
YVMC	≤ 0.2
ISMC	≤ 0.2
HQVR	≤ 0.2
HDQN	≤ 0.2
NGQS	≤ 0.2
LMIA	≤ 0.2
QNAT	≤ 0.2
LLAL	≤ 0.2
DFAR	≤ 0.2
ATDY	≤ 0.2
TLNW	≤ 0.2
RISG	≤ 0.2
FHRY	≤ 0.2
PCSN	≤ 0.2
AAKG	≤ 0.2
NFVC	≤ 0.2
DWRR	≤ 0.2
TPYW	≤ 0.2

Variant	one-hybrid fitness for binding NBS DNA
FGTY	≤ 0.2
GTHV	≤ 0.2
NGRC	≤ 0.2
QDFS	≤ 0.2
KQDR	≤ 0.2
SCTM	≤ 0.2
GNAI	≤ 0.2
MKDS	≤ 0.2
PPMG	≤ 0.2
LLAT	≤ 0.2
CNCG	≤ 0.2
REHV	≤ 0.2
LMRN	≤ 0.2
FFTF	≤ 0.2
DTKK	≤ 0.2
SDRQ	≤ 0.2
RFYI	≤ 0.2
SPKT	≤ 0.2
TETR	≤ 0.2
IAWS	≤ 0.2
GICT	≤ 0.2
GVCD	≤ 0.2
ASGQ	≤ 0.2
AVTM	≤ 0.2

Variant	one-hybrid fitness for binding NBS DNA
YWQR	≤ 0.2
RSIT	≤ 0.2
RLQK	≤ 0.2
ILTL	≤ 0.2
HIGC	≤ 0.2
TYKP	≤ 0.2
RPIG	≤ 0.2
QIKK	0.243
QQKL	0.327
PIKI	≤ 0.2
SRDV	≤ 0.2
CAPR	≤ 0.2
KILN	≤ 0.2
QRMI	0.261
NCFR	≤ 0.2
RIPM	≤ 0.2
KQKM	≤ 0.2
CSIL	≤ 0.2
WPCS	≤ 0.2
KLCP	≤ 0.2
TRFN	≤ 0.2
TCEE	≤ 0.2
QAFG	≤ 0.2
LWGT	≤ 0.2

Variant	one-hybrid fitness for binding NBS DNA
NTLF	≤ 0.2
AASE	≤ 0.2
HYPN	≤ 0.2
RSFS	0.252
QMVY	≤ 0.2
IFSG	≤ 0.2
WPLS	≤ 0.2
STHV	≤ 0.2
MQRC	≤ 0.2
AELS	≤ 0.2
EMFS	≤ 0.2
TWDS	≤ 0.2
DVAR	≤ 0.2
QRCV	0.406
VAGH	≤ 0.2
QPNF	≤ 0.2
HTTF	≤ 0.2
GTEN	≤ 0.2
DVGT	≤ 0.2
IRMC	≤ 0.2
TCCG	≤ 0.2
RVPD	≤ 0.2
YDFT	≤ 0.2
QMVT	0.373

Variant	one-hybrid fitness for binding NBS DNA
TKCS	≤ 0.2
QSGW	≤ 0.2
PYGP	≤ 0.2
VNLR	≤ 0.2
TQNP	≤ 0.2
FVTP	≤ 0.2
ADTN	≤ 0.2
PTCT	≤ 0.2
QPWV	≤ 0.2
ISRV	≤ 0.2
HLKA	≤ 0.2
QFQG	≤ 0.2
VPDR	≤ 0.2
PLLS	≤ 0.2
RTPS	≤ 0.2
MAVR	≤ 0.2
HMSL	≤ 0.2
PRSK	≤ 0.2
RTHE	≤ 0.2
WNDS	≤ 0.2
QEHM	≤ 0.2
NFDS	≤ 0.2
EGWS	≤ 0.2
DSYA	≤ 0.2

Variant	one-hybrid fitness for binding NBS DNA
LEHT	≤ 0.2
QLLY	≤ 0.2
DIGF	≤ 0.2
YTMG	≤ 0.2
RIAF	≤ 0.2
KSNS	≤ 0.2
SSDR	≤ 0.2
DSVV	≤ 0.2
IHSF	≤ 0.2
PGKS	≤ 0.2
CSSP	≤ 0.2
LAYV	≤ 0.2
MSNV	≤ 0.2
PLYC	≤ 0.2
MFMR	0.215
HRAG	≤ 0.2
LLWY	≤ 0.2
VAPK	≤ 0.2
REMD	≤ 0.2
QKHH	0.205
EVVM	≤ 0.2
AERE	≤ 0.2
LIGG	≤ 0.2
INES	≤ 0.2

Variant	one-hybrid fitness for binding NBS DNA
RDKE	≤ 0.2
SMVV	≤ 0.2
WNRR	≤ 0.2
HKGT	≤ 0.2
TDYC	≤ 0.2
QVIG	≤ 0.2
QCEC	≤ 0.2
RGEA	≤ 0.2
MSYC	≤ 0.2
VDNC	≤ 0.2
TLSL	≤ 0.2
PIET	≤ 0.2
QCRT	0.857
SRCL	≤ 0.2
QSTM	≤ 0.2
SAVN	≤ 0.2
RTDS	0.219
GGYY	≤ 0.2
TGNM	≤ 0.2
PEPQ	≤ 0.2
CTGC	≤ 0.2
QHYV	≤ 0.2
DPSN	≤ 0.2
QNHY	≤ 0.2

Variant	one-hybrid fitness for binding NBS DNA
KDTK	≤ 0.2
QSLR	0.452
QKVY	≤ 0.2
RICF	≤ 0.2
YTVG	≤ 0.2
AREQ	≤ 0.2
QHDL	≤ 0.2
EGTR	≤ 0.2
PISY	≤ 0.2
PNLH	≤ 0.2
RWID	≤ 0.2
FYQG	≤ 0.2
FRGS	≤ 0.2
TCRC	≤ 0.2
WKVV	≤ 0.2
ATGC	≤ 0.2
TKAA	≤ 0.2
PPFI	≤ 0.2
